This is an account of results in paper PMC6542180.

Protein sequences, listed by entry. Tags and fused reporters are not part of them. Lines headed by an entry give the natural chain unless they say otherwise; changes in a name come on top.
UniProt P29350: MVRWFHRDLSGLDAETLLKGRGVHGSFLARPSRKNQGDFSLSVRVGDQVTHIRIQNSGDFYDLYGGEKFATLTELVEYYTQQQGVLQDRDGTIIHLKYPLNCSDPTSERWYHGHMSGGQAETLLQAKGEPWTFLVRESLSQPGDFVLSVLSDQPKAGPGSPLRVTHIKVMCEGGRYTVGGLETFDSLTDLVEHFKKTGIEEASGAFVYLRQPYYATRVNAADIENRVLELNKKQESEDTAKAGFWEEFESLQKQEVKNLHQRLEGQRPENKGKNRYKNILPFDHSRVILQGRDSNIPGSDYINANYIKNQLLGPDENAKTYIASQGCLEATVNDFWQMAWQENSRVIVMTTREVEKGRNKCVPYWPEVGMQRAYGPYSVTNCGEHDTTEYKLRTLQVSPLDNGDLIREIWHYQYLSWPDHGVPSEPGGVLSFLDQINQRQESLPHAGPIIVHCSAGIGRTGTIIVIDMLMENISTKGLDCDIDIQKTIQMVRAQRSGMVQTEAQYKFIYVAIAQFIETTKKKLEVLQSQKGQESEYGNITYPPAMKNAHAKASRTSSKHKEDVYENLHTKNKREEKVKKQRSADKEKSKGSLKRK
UniProt P29351: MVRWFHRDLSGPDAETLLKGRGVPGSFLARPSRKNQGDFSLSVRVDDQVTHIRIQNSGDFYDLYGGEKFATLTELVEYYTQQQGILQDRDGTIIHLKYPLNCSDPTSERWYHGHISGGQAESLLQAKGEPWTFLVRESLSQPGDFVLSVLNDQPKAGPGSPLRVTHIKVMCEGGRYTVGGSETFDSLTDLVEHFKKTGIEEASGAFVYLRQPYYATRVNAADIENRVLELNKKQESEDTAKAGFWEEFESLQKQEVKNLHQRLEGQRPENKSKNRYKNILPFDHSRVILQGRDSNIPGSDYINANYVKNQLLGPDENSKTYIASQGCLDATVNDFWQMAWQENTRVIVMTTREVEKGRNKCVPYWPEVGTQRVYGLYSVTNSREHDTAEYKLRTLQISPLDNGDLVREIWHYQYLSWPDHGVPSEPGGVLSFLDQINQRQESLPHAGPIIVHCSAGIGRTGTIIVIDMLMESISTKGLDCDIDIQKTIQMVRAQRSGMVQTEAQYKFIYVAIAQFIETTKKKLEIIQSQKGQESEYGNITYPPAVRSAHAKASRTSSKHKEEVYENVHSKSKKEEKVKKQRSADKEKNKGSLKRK

No constants are given. Whether binding was seen depends on the method and setting. For some assays here: In cells and extracts the contact can be indirect. Some results given as binding are weak or reduced against the parent protein; the word gives no strength. For some assays here: Tags and fused reporters may be left off the sequences shown.

For assay [1], the target named is Flag-EDL933 Tir residues 1–333 (enterohemorrhagic Escherichia coli (EHEC) strain EDL933) (UniProt Q7DB77). As to the kind of experiment: co-IP.
The target of assay [2] is Flag-EDL933 Tir (wild-type) (enterohemorrhagic Escherichia coli (EHEC) strain EDL933) (UniProt Q7DB77). The experiment in a line: co-IP.
In assay [3] the target is Flag-EDL933 Tir residues 334–558 (enterohemorrhagic Escherichia coli (EHEC) strain EDL933) (UniProt Q7DB77). As to the kind of experiment: co-IP.
The target of assay [4] is T1, TAK1 of the in vitro GST pull-down assay (UniProt O43318).
T1 sequence: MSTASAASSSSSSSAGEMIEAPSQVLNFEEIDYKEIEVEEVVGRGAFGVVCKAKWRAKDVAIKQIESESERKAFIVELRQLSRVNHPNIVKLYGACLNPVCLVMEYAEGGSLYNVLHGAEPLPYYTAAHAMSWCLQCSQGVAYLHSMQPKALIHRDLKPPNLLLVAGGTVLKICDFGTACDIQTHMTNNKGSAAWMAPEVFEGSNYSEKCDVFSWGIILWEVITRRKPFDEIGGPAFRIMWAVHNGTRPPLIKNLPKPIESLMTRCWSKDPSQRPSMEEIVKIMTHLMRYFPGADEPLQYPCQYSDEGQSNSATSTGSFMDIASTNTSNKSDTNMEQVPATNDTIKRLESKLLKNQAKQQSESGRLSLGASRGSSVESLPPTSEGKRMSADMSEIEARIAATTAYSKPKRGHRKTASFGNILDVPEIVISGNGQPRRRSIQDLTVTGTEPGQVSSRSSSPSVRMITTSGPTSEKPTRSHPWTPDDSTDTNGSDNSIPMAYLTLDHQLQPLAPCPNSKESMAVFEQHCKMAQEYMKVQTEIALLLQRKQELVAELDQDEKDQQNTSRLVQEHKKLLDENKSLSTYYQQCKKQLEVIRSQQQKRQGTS
As to the kind of experiment: pull-down; in vitro GST pull-down of TAK1 with purified recombinant His-SHP-1; both purified.

For assay [5], the target named is T1, TAK1 of the in vitro GST pull-down assay. As to the kind of experiment: pull-down; in vitro GST pull-down of TAK1 with endogenous SHP-1 from mouse primary peritoneal macrophages; only the target purified.
Assay [6] addresses HA-Tir delivered by EDL933(ΔTir + HA-Tir) (enterohemorrhagic Escherichia coli (EHEC) strain EDL933) (UniProt Q7DB77). As to the kind of experiment: co-IP.
Assay [7] concerns the target T1, TAK1 of the in vitro GST pull-down assay. The experiment in a line: pull-down; in vitro GST pull-down of TAK1 with endogenous SHP-1 from RAW264.7 cells; only the target purified.

Consider “HA-SHP-1 (from UniProt P29350 1-595) (enzyme)”, for which the binding result is “no binding” in assay [1], “binds” in assay [2] and “binds” in assay [3].

Regarding “His-SHP-1 (from UniProt P29350 1-595) (enzyme)”, the binding entry in assay [4] is reported as “binds”.

As for “SHP-1 (C453S) (from UniProt P29350 1-595) (enzyme)”, in assay [2], the binding result is recorded as “no binding”.

“SHP-1 residues 1–242 (from UniProt P29350 1-242) (domain or fragment)”: the binding entry in assay [2] is listed as “no binding”.

For the substance “SHP-1 residues 107–595 (from UniProt P29350 107-595) (domain or fragment)”, the binding entry in assay [2] is “binds”.

For “SHP-1 residues 221–595 (from UniProt P29350 221-595) (domain or fragment)”, in assay [2], the binding result is recorded as “binds”.

For the substance “endogenous SHP-1 (from UniProt P29351 1-595) (enzyme)”, the binding entry in assay [5], in assay [6] and in assay [7] was “binds” each time.
